About 14,000 (4.5%) of roughly 310,000 compounds showed an effect of 50% or more. The effect is printed as a negative number. This is one part of the list.
The compounds below were run against human ether-à-go-go-related gene (hERG) potassium channel (human, UniProt Q12809) (assay: primary screen, population patch clamp on CHO cells stably expressing hERG).
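Also: peak tail current of the secondary pulse compared with the same well before compound.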

Sequence of human ether-à-go-go-related gene (hERG) potassium channel (Q12809 whole entry, looked up): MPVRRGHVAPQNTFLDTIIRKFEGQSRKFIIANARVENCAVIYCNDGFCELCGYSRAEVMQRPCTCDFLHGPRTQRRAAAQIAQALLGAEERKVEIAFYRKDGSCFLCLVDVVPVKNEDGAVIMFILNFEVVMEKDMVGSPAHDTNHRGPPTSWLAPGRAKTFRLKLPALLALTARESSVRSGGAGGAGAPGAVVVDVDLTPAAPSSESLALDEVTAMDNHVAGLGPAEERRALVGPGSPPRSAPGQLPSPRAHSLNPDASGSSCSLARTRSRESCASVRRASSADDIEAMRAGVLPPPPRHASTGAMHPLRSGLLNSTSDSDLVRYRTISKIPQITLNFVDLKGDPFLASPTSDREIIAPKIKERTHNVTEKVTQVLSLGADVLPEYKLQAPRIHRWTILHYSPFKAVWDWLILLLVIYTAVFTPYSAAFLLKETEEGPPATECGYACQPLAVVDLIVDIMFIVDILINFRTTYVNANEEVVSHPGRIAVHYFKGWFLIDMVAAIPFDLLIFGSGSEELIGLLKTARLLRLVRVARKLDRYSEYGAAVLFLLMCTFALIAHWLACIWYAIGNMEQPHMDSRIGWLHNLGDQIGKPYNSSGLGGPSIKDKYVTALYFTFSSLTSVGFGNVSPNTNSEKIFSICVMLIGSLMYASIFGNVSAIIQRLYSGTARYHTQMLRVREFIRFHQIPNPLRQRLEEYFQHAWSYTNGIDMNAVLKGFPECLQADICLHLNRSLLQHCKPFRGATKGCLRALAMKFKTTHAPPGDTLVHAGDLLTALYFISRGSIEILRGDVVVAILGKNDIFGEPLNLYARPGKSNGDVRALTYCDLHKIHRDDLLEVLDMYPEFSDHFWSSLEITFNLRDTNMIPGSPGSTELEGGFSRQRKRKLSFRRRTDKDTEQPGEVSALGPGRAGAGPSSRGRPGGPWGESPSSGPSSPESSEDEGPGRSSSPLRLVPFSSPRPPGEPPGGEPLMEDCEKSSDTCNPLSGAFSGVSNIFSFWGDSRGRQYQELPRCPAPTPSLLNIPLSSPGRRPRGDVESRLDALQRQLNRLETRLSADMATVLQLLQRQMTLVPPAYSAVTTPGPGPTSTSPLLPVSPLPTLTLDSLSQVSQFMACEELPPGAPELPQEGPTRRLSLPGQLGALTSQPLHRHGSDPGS

Compared with `CC1=CC(=O)CC(C)(C)C1(O)/C=C/C(C)=C/C(=O)O` (stereo not shown), `CC(=O)C1C(c2ccccc2)c2c(noc2C)CC1(C)O` (stereo not shown) is higher in “hERG current change (%, negative = inhibition) at 10uM” value: 5.43% for the first, 5.78% for the second.

Compared with `Cc1ccc(CS(=O)(=O)c2ncn[nH]2)cc1`, `Cc1ccc2c(c1)C(=O)C(=O)N2CCCOc1ccccc1` is lower in “hERG current change (%, negative = inhibition) at 10uM” value: 26.8% for the first, -16.9% for the second.

Going from `CN1CCN(CC(=O)Nc2cccc([N+](=O)[O-])c2)CC1` to `O=C(NC1CC1)c1ccc(N2CCCCC2)c([N+](=O)[O-])c1`, the “hERG current change (%, negative = inhibition) at 10uM” value falls from 3.24% to -48.3%.

First: Cc1cc2cc(C)c(NCCNC(=O)c3cccc(F)c3)nc2cc1C
Second: Cc1ccc2[nH]c(CNC(=O)c3ccccc3F)cc2c1
The “hERG current change (%, negative = inhibition) at 10uM” value of the first is higher: 9.57% for the first, -9.38% for the second.

Compared with `COc1cccc(Cn2cccc(NC(=O)Nc3cccc(C#N)c3)c2=O)c1`, `COC(=O)c1ccccc1NC(=O)c1ccc2c(c1)C(=O)N(Cc1ccco1)C2=O` is lower in “hERG current change (%, negative = inhibition) at 10uM” value: 6.1% for the first, -1.27% for the second.

Compared with `OC[C@H](O)[C@H](O)[C@@H](O)[C@@H](O)[C@@H]1SC(c2ccccc2)=NN1c1ccccc1`, `Cc1oc(-c2ccccc2)nc1C(=O)OCC(=O)NC(C)c1ccccc1` (stereo not shown) is lower in “hERG current change (%, negative = inhibition) at 10uM” value: 7.29% for the first, -27.7% for the second.

Compared with `CC(C)[C@@H](CO)NC(=O)c1ccc2c3n(nc2c1)-c1ccc(Cl)cc1CO3`, `CCn1nccc1C(=O)Nc1cc(Cl)ccc1Cl` is higher in “hERG current change (%, negative = inhibition) at 10uM” value: -6.39% for the first, 3.21% for the second.

Going from `S=C(NC1CC1)N1CCN(c2ccc(Cl)cc2)CC1` to `CCOC(=O)N1CCN(c2nnnn2-c2ccccc2)CC1`, the “hERG current change (%, negative = inhibition) at 10uM” value falls from 1.76% to -0.913%.

First: CC(=O)N[C@@H](Cc1c[nH]c2ccccc12)C(=O)OCC(=O)Nc1ccc(Cl)c(S(=O)(=O)N(C)C)c1
Second: Cc1cc(OCC(=O)N[C@@H](Cc2c[nH]c3ccccc23)C(=O)O)c2c(C)c(C)c(=O)oc2c1
The “hERG current change (%, negative = inhibition) at 10uM” value of the first is lower: -8.61% for the first, -4.7% for the second.

Going from `CCOC(=O)C(C(=O)OCC)C1CCS(=O)(=O)C1` (stereo not shown) to `CCN(C(=O)COC(=O)c1cccc(NS(=O)(=O)c2ccc(F)c(F)c2)c1)C1CCS(=O)(=O)C1` (stereo not shown), the “hERG current change (%, negative = inhibition) at 10uM” value rises from 14.4% to 18.5%.

Going from `CC1CC(C)CN(C(=O)C2CCCN(S(=O)(=O)c3cccc4nonc34)C2)C1` (stereo not shown) to `CC1CCN(C(=O)c2ccc3c(c2)OCCO3)CC1`, the “hERG current change (%, negative = inhibition) at 10uM” value rises from -36.4% to 7.51%.

Going from `N#Cc1nc(-c2ccc(OCc3ccccc3)cc2)oc1NCCCN1CCOCC1` to `O=C(COc1ccccc1)Nc1ccc(S(=O)(=O)N2CCOCC2)cc1`, the “hERG current change (%, negative = inhibition) at 10uM” value rises from 1.35% to 16.2%.

Compared with `O=C1c2ccccc2C(=O)N1CCCCSc1nnnn1-c1ccccc1`, `CC(C(=O)Oc1ccc2c(c1)OCO2)N1C(=O)c2ccccc2C1=O` (stereo not shown) is higher in “hERG current change (%, negative = inhibition) at 10uM” value: -51.7% for the first, -23.1% for the second.

First: O=C(O)c1ccc(N/N=C/c2cccc(C(F)(F)F)c2)cc1
Second: Cc1cccc(C(=O)Nc2ccccc2C(=O)Nc2ccc(C(=O)O)cc2)c1
The “hERG current change (%, negative = inhibition) at 10uM” value of the first is higher: 27.3% for the first, 22.1% for the second.

First: COCCN(C(=O)COC(=O)c1cc2ccccc2cc1O)c1c(N)n(Cc2ccccc2)c(=O)[nH]c1=O
Second: Nc1cc(=O)n(Cc2ccccc2)c(=O)n1-c1ccc(F)cc1
The “hERG current change (%, negative = inhibition) at 10uM” value of the first is lower: -17.6% for the first, 8.88% for the second.

First: Cl.Oc1ccc(C2NCc3ccccc3-n3cccc32)cc1Cl (stereo not shown)
Second: O=c1cc(CSc2ccccn2)c2ccccc2[nH]1
The “hERG current change (%, negative = inhibition) at 10uM” value of the first is lower: -10.9% for the first, 9.52% for the second.

Going from `COc1cc(OC)cc(-c2nnc(SCC(=O)Nc3ccc(C(=O)O)cc3)s2)c1` to `CCOC(=O)CC(NC(=O)Cn1nnc(-c2ccccc2C)n1)c1ccc(OC)cc1` (stereo not shown), the “hERG current change (%, negative = inhibition) at 10uM” value falls from 27.6% to -11.3%.

Compared with `Clc1ccc(-c2c[n+](Cc3ccc(Br)cc3)c3n2CCCCC3)cc1.[Br-]`, `CCCCc1nc(S(=O)(=O)c2ccc(Cl)cc2)c(N2CCOCC2)o1` is lower in “hERG current change (%, negative = inhibition) at 10uM” value: -66.4% for the first, -69.6% for the second.

First: CCCc1nc(-c2cc3ccc(C)cc3[nH]c2=O)no1
Second: Nc1nc(SCc2nc3scc(-c4ccccc4)c3c(=O)[nH]2)n[nH]1
The “hERG current change (%, negative = inhibition) at 10uM” value of the first is lower: -16.3% for the first, 9.79% for the second.

Going from `CCC1CCCCN1CCCNC(=O)CCC(=O)N1CC(C)Oc2ccccc21` (stereo not shown) to `Cc1ccc(C)c(S(=O)(=O)N2CCCOC2CNC(=O)C(=O)NCc2ccc3c(c2)OCO3)c1` (stereo not shown), the “hERG current change (%, negative = inhibition) at 10uM” value falls from -5.13% to -18.1%.

Compared with `COC(=O)C1=C(C)N(C(C)c2ccccc2)C(=O)/C1=C\c1ccco1` (stereo not shown), `COc1ccc(CCNC(=O)C(=O)c2c(C)[nH]c3ccccc23)cc1` is lower in “hERG current change (%, negative = inhibition) at 10uM” value: 26.3% for the first, 6.09% for the second.

First: O=C(c1cccs1)c1ccc(-c2cccs2)s1
Second: O=C(CCS(=O)(=O)c1ccc(F)cc1)Nc1nc(-c2ccncc2)cs1
The “hERG current change (%, negative = inhibition) at 10uM” value of the first is higher: 1.57% for the first, -8.06% for the second.

Compared with `CCC(C)(C(=O)Nc1ccccc1C)N(C(=O)CNC(C)=O)c1ccc(C)cc1` (stereo not shown), `Cc1ccc(NC(=O)NC(=O)COc2ccc(Cl)cc2Cl)c(C)c1` is lower in “hERG current change (%, negative = inhibition) at 10uM” value: 14.8% for the first, -0.327% for the second.

Going from `O=c1[nH]nc(SCc2nnc(-c3ccc([N+](=O)[O-])cc3)o2)n1C1CCCCC1` to `CC(C)(C)c1ccc(C(=O)NC(CC(=O)O)c2ccc(OC3CCCC3)cc2)cc1` (stereo not shown), the “hERG current change (%, negative = inhibition) at 10uM” value rises from -27.4% to 8.76%.

Going from `COc1cc2c(cc1NCc1ccc3c(c1)OCO3)oc1ccccc12` to `Cc1cc(-c2csc(N)n2)c(C)n1CCc1ccccc1.Cl`, the “hERG current change (%, negative = inhibition) at 10uM” value falls from 18.5% to -12.4%.

First: O=C(N/N=C/c1ccccn1)c1ccc([N+](=O)[O-])cc1Cl
Second: CCOC(=O)c1cnn(-c2nc(-c3ccccc3)cs2)c1C(F)(F)F
The “hERG current change (%, negative = inhibition) at 10uM” value of the first is higher: 7.03% for the first, 0.992% for the second.

First: CC12CCC3C(CC=C4CC5(CCC43C)OCCO5)C1CCC2=O (stereo not shown)
Second: Cc1ccc(S(=O)(=O)Nc2cc(C(=O)N3CCOCC3)ccc2N2CCCCC2)cc1
The “hERG current change (%, negative = inhibition) at 10uM” value of the first is higher: -1.11% for the first, -20.5% for the second.

In the case of `Oc1c(C(c2ccco2)N2CCOCC2)sc2ncnn12` (stereo not shown), the “hERG current change (%, negative = inhibition) at 10uM” value is reported as 7.54%.

Source: article PMC4336329 (PLoS ONE, 2015)
